This is one part of the list.
B1: chr8:15480645:15480646:+_ENSG00000104723_ENST00000503731|hu_hu|FALSE|FALSE (ssRNA)
RNA: GGGAGUUCUACAGUCCGACGAUCCAUUCGGAAGAUUGAGCGUCUGGAACUCCAUUCCAUCAGCUGCUCUACUUUUUCAGCUAAAAGAUUCUCCUUUUUCUUCUGUCCUCCCCCGAGCUGGAUGCAGAGCAGCAGCAGCAGGAGCAACAGAGGAUUGAGCAUCA
B2: 129699467_129699587_1627_CDS_ENSMUSG00000026349_ENSMUST00000027587|mouse|control|control (ssRNA)
RNA: GGGAGUUCUACAGUCCGACGAUCGCCUUCAUCAGAAGAGCUGUGUCUUUCCGAGGAUGCCACUUUGAUUUUCAUCUUCAGCUCCUCUUUGCUGGGACCUUUGUCAGGCGGGGGGAUGGGAAUGCGGAGCUUCAGUGAUCCACUCAACAGAGGAUUGAGCAUCA
B3: chr10:99542671:99542672:+_ENSMUSG00000019966_ENSMUST00000105283|mus_mus|motif|central (ssRNA)
RNA: GGGAGUUCUACAGUCCGACGAUCACUAGUGUCAGAUGCCACCAUAAAGUCCUUAAAGGCAUCAAUGGAUCUAUUGAAAAUACGGAAGAAUUCUUCAGGAGUAAAGGAUCUAGUUUCUGGCCUCUUCGGAGAUUCUUUUAUAUUCAACAGAGGAUUGAGCAUCA
B4: chr6:136600977:136600978:-_ENSG00000029363_ENST00000527536|hu_hu|FALSE|FALSE (ssRNA)
RNA: GGGAGUUCUACAGUCCGACGAUCCGAGACCUAGAACUGUAUCGCUUCUUUCUAGAAUGAGAUCUUGAUCUUGAUCGAGAACUAGACUGUGAUCUAGACUUUGACCUUGAAGAAUGUGAUCUAGAAUUGGAGCGACCCAUUUCUCAACAGAGGAUUGAGCAUCA
B5: chr2:61275951:61275952:+_ENSG00000162928_ENST00000295030|hu_hu|FALSE|FALSE (ssRNA)
RNA: GGGAGUUCUACAGUCCGACGAUCGUUUUCAUUGGAUUGUACAUUCAUUUCUUUGUGAGAAAUAAUUUUAAAAAGUACUCUAAAGUAUUGUUCAACUGCAGGCAAACAUGAAAGAUAUCAAAGAUCUUGCUUUUCUCCAUCUUUCAACAGAGGAUUGAGCAUCA
B6: chr5:24093644:24093645:+_ENSMUSG00000038181_ENSMUST00000088295|mus_mus|FALSE|FALSE (ssRNA)
RNA: GGGAGUUCUACAGUCCGACGAUCUUCCCAACCCUAUGUCUGGUCUUCAGUGGCCAUGGUGCUGAUACCCUCAGUAAAAUACUAAUGUCUAUGUGAGCAAUGCCACUCCCUACGGGGAUUGCAGUCUGUAGUCCAGGAAAAAGACAACAGAGGAUUGAGCAUCA
B7: chr15:27661301:27661302:-_ENSMUSG00000022263_ENSMUST00000090247|mus_mus|motif|central (ssRNA)
RNA: GGGAGUUCUACAGUCCGACGAUCCCCACCCCCAACACACACAGAACCAUAAAGCUCACUUGCGAAGUAUGUGCUUUUUCGGUAUAUUUAUUACAUGUAUAACAGAAGUCUUCAUAAAUAGUUGCAGAAAAUGUUAAAGCCACACAACAGAGGAUUGAGCAUCA
B8: 120675030_120675150_4139_CDS_ENSMUSG00000025153_ENSMUST00000055655|mouse|control|control (ssRNA)
RNA: GGGAGUUCUACAGUCCGACGAUCGGCAUGUCCUUUGAGCACUGUGUGCACUAGCAGGAAACCACCUUCCUUGAGGGCAGCUACCAUGUUGUCCAGGGCCAAGGCUGGAUCCCCCAGGGUGGCUAAUGCACAGUUGCACACCAGCAACAGAGGAUUGAGCAUCA
B9: 38066641_38066761_1075_CDS_ENSG00000156735_ENST00000287322|human|control|control (ssRNA)
RNA: GGGAGUUCUACAGUCCGACGAUCAGGGGGUGACUGGGGAGAGCCACUGCUAGGCCAUGGUGAAGUACUUUCAGUCAUGUAGAGAUUGCCGGGUGGUGCUGAGGGCGCUGAUGAAGGCCAGGGAUAACGGCCACCCAUUCCAUACAACAGAGGAUUGAGCAUCA
B10: chr4:122741918:122741919:-_ENSG00000145386_ENST00000274026|hu_mus|FALSE|FALSE (ssRNA)
RNA: GGGAGUUCUACAGUCCGACGAUCGUCUGGCUGCCUCUUCAUGUAACCCACUUUAGGUUUACAUUUAACCUCCAUUUCCCUAAGGUACGUGUGAAUGUCUUCUUGAUAGUCAGGUACUUCAUUAACGUUCACUGGCUUGUCUUCCAACAGAGGAUUGAGCAUCA
B11: 70590105_70590225_2005_CDS_ENSG00000189091_ENST00000302516|human|control|control (ssRNA)
RNA: GGGAGUUCUACAGUCCGACGAUCGGAGAUGAUUCUGACAGUGUUGUCCACAAGCCCCACAGCCAGGAAGCGAGACCGCUGCUCUCCAGGGGGUACAUUGGCCAGACUCAUGCACACCACAUCUGCUGACAUCUCCUUCCGUUCCAACAGAGGAUUGAGCAUCA
B12: chr14:78183846:78183847:+_ENSG00000119705_ENST00000557342|hu_hu|hu_hu_hu_mus_False|58_58 (ssRNA)
RNA: GGGAGUUCUACAGUCCGACGAUCUCUCAGAAAUCUUUCUUCAUCAGAUGUUUGAGCUCCGUGCAAAGCCUUUGCUCUUCUAGUGUGAACGUGGAUCUAUGGGAGGGAAAGCACUGUCAGAAAAGGUAAUUUUUUUUUUAAAGACAACAGAGGAUUGAGCAUCA
B13: 67948388_67949015_857_CDS_ENSMUSG00000079614_ENSMUST00000025421|mouse|control|control (ssRNA)
RNA: GGGAGUUCUACAGUCCGACGAUCACCAGAGGAAGUAAGUUCUUUCCUCAGAGGUUUUAAUGUGAAAAUUCUUACAUCUUUGGUUGCUACUGCCAGGAUGUGGAAAGAUCUUCCCAAAUUUGGAGCAAACGCGAUAUCAUGGACCAACAGAGGAUUGAGCAUCA
B14: chr2:217001844:217001845:+_ENSG00000079246_ENST00000392132|hu_hu|hu_hu_hu_mus_False|58_108 (ssRNA)
RNA: GGGAGUUCUACAGUCCGACGAUCACCGACUUGAGGAUUAGAUCUUUUGUCAUAAGCAUAUCGGACGAUGGCGACCAUGUCUAAGUCAUCCAAAGCAUGAACGAGAGAGGAAAGGGCAACAGCUGCCGCCUCAUCAUCCUUUGCCAACAGAGGAUUGAGCAUCA
B15: 17271496_17271616_280_CDS_ENSG00000026025_ENST00000224237|human|control|control (ssRNA)
RNA: GGGAGUUCUACAGUCCGACGAUCGGAGCGCGUGGCAUACACGCCGCCCGGGGACGAGGCGUAGAGGCUGCGGCUGGUGCUGGGGCGCAGCGCGCUGCCCAGGCUGUAGGUGCGGGUGGACGUAGUCACGUAGCUCCGGCUGGACAACAGAGGAUUGAGCAUCA
B16: 49561091_49561211_87_3pUTR_ENSMUSG00000037892_ENSMUST00000035931|mouse|control|control (ssRNA)
RNA: GGGAGUUCUACAGUCCGACGAUCGGCGGAGUCUGCAGUCUGUGUUUCCCGGGCGAUUCUUGAUUUUCCCCCCUUUCCUUUUCUCUGCUCCGCUGCAGACUAAACACCGGUGAUUGCUGACUCCAGUCUGAAAAUCUCUACAACCAACAGAGGAUUGAGCAUCA
B17: chr4:140556289:140556290:+_ENSMUSG00000036622_ENSMUST00000037055|mus_mus|mus_mus_mus_hu_False|38_48 (ssRNA)
RNA: GGGAGUUCUACAGUCCGACGAUCGAUGGAGCUCACCAGGCCCCCUUUUGCCGUGCAGAACCCUGUGCGGGUCACCACUGCCAGGACACGGGGUCCCACGUAGGCUCGGGCCUGCAAGAUGAGGGUCCCGCAGAAGAGUGUGUGCAACAGAGGAUUGAGCAUCA
B18: 33281170_33284196_2202_CDS_ENSG00000083642_ENST00000315596|human|control|control (ssRNA)
RNA: GGGAGUUCUACAGUCCGACGAUCGAAAAUUUGUAGUGCAGCUUCUGCUACUUUUUCAUCAUCCAUUUUCAGACAAGCCAGUAAUGAUUCAAAUGUUUCAGCAGAAUGAAAUGAGAUGGGAUGUGUAAAUGAGAGUACCUUAAGCAACAGAGGAUUGAGCAUCA
B19: 10106795_10116523_2921_CDS_ENSMUSG00000056763_ENSMUST00000071087|mouse|control|control (ssRNA)
RNA: GGGAGUUCUACAGUCCGACGAUCAAAAGUAGUAGCAUCUAAGCCCUUAGGCGAUGGUCUUCUGACAGGGGCUUGUACCCGAUGUCUAGCCAUGUCAAAUAUAUCCAUUGGGUUCCUCUCUCUUUUCCUCAUGGGGAUCUCGUCCAACAGAGGAUUGAGCAUCA
B20: chr16:94637918:94637919:+_ENSMUSG00000040785_ENSMUST00000117648|mus_hu|FALSE|FALSE (ssRNA)
RNA: GGGAGUUCUACAGUCCGACGAUCAUCCUGGUGUGCAGCUCUGGAAGAUUUAGAAAACUGUUUCUCCAAGAUGUUCUUCAAAUCUGCUGGUAAAGUCAAUGGUGAACUAGAACUGAACUUUUCUGAUUCAUUGUUUCGAGAUUUCAACAGAGGAUUGAGCAUCA
B21: chr11:87793471:87793472:-_ENSMUSG00000020483_ENSMUST00000020775|mus_mus|mus_mus_mus_hu_False|28_38 (ssRNA)
RNA: GGGAGUUCUACAGUCCGACGAUCUGGACUUGAAAAUAAAAGAAUAAGCUGGAUCCCCCACCCCCCCACAUUGUCAACCCUACACGAGAGUUUUGAAUGAUUCAUAAGAAUCAGCAGAGCUCAAACGGCAAUGACCACCCCACCCAACAGAGGAUUGAGCAUCA
B22: chr11:74504092:74504093:-_ENSMUSG00000020745_ENSMUST00000021091|mus_hu|motif|central (ssRNA)
RNA: GGGAGUUCUACAGUCCGACGAUCCUUCCUUUUUAAAAACUGAAUAUGCCUCUUCAUAGCCAUUUGAACGAAGAUAAUCUGCGGUAGCUCGAUUUAGUUCAUCUCGUUGUCUCUGGGACAGCACCAUCUUGGCUGUAAUGUCAACAACAGAGGAUUGAGCAUCA

Target: T1, UNK ZnF1-3 (human, UniProt Q9C0B0 31-174)
T1 sequence: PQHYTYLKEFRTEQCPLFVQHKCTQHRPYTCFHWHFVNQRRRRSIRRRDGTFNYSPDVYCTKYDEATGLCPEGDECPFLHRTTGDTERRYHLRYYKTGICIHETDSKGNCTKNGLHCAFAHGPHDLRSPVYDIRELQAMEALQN
Experiment: nsRBNS (natural sequence RNA bind-n-seq); RBNS binding buffer (assumed for nsRBNS): 25 mM Tris pH 7.5, 150 mM KCl, 3 mM MgCl2, 0.01% Triton X-100, 500 ug/ml BSA, 20 U/ml SUPERase-In, 4 C; UNK is unkempt and MSI1 is Musashi-1; names of the RNAs are library labels; protein concentration not given here; high values mean tight binding

Which binding signal does the source give for B1 here?
Its binding signal is 0.755 enrichment R.

B2 was tested. Which binding signal did it give?
Its binding signal is 0.754 enrichment R.

For B3, which binding signal is on record?
Its binding signal is 1.14 enrichment R.

For B4, which binding signal is on record?
Its binding signal is 0.212 enrichment R.

With B5 as the binder, how does the binding signal read?
The binding signal was 0.54 enrichment R.

Which binding signal does the source give for B6 here?
Its binding signal is 0.929 enrichment R.

For B7, which binding signal is on record?
Its binding signal is 2.28 enrichment R.

Which binding signal does the source give for B8 here?
Its binding signal is 0.382 enrichment R.

B9 was tested. Which binding signal did it give?
The binding signal was 1.16 enrichment R.

With B10 as the binder, how does the binding signal read?
The binding signal was 0.306 enrichment R.

Which binding signal does the source give for B11 here?
The binding signal was 0.612 enrichment R.

For B12, which binding signal is on record?
The binding signal was 1.49 enrichment R.

Which binding signal does the source give for B13 here?
Its binding signal is 0.981 enrichment R.

With B14 as the binder, how does the binding signal read?
The binding signal was 2.05 enrichment R.

Which binding signal does the source give for B15 here?
The binding signal was 0.289 enrichment R.

How did the binding signal turn out when B16 was run?
Its binding signal is 0.762 enrichment R.

With B17 as the binder, how does the binding signal read?
Its binding signal is 1.02 enrichment R.

With B18 as the binder, how does the binding signal read?
The binding signal was 1.02 enrichment R.

How did the binding signal turn out when B19 was run?
Its binding signal is 0.72 enrichment R.

B20 was tested. Which binding signal did it give?
The binding signal was 0.794 enrichment R.

For B21, which binding signal is on record?
Its binding signal is 1.59 enrichment R.

How did the binding signal turn out when B22 was run?
The binding signal was 0.634 enrichment R.

Source: paper PMC12136788
